Source: PubChem BioAssay AID463173 (ICCB-Longwood Screening Facility, Harvard Medical School, 2010)
Screen size: about 52,000 compounds; about 1,700 (3.3%) were called active. No stated cut-off is given here; in the data, active means survival mostly below about 52% (no sharp cut-off); inactive means mostly above about 56%. The list shows a part of the results.

test system: Wild type; test: S. aureus survival, RN4220 and DeltatarO strains – OD600, teichoic acid synthesis inhibitors, primary screen (AID 463173); details: S. aureus RN4220 wild type/DeltatarO growth, OD600, 18 h, stronger effect = lower value, screened at 18.75 µg/mL (by protocol)

Structure (SMILES) | survival
COc1ccccc1Cn1cc(C(=O)c2ccc(F)cc2)c(=O)c2cc3c(cc21)OCO3 | inactive: 85%
Cc1ccccc1OCc1nnc(SCC(=O)O)n1CCc1ccccc1 | inactive: 99%
Cc1ccc(C)c(N2CCN(C(=O)c3cc(S(=O)(=O)N4CCC(C)CC4)cn3C)CC2)c1 | inactive: 88%
COc1ccccc1C(=O)c1cn(CC(=O)Nc2ccccc2F)c2nc(C)ccc2c1=O | inactive: 74%
C=CCc1cccc2cc(-c3nc4ccc(C(=O)O)cc4[nH]3)c(=O)oc12 | inactive: 83%
COc1cc(NC(=O)CN2CCCN(S(=O)(=O)c3ccc(F)cc3)CC2)cc(OC)c1 | inactive: 81%
O=C(Nc1ccccc1Br)c1cc(S(=O)(=O)NC2CCCCC2)ccc1F | inactive: 123%
Cc1ccc2nc(-c3ccc(NC(=O)COc4ccccc4C(C)(C)C)cc3)sc2c1 | inactive: 115%
CCOC(=O)c1cc(S(=O)(=O)Nc2c(C)cc(C)cc2C)[nH]n1 | inactive: 87%
Cc1ccc(C)c(NC(=O)C2CCCN2S(=O)(=O)c2ccc3c(c2)n(C)c(=O)c(=O)n3C)c1 (stereo not drawn) | inactive: 71%
COc1ccc(C2C(C(=O)Nc3cccnc3)=C(C)Nc3nc(SCc4ccccc4)nn32)cc1 (stereo not drawn) | inactive: 85%
CCOCCCNC(=O)c1ccc(Cn2c(=O)c3cccn3c3cccnc32)cc1 | inactive: 88%
CC(=O)NC(C)c1nc2ccccc2n1Cc1ccccc1Cl (stereo not drawn) | inactive: 91%
CCOC(=O)N1CCN(c2ncc3c(n2)CC(c2ccc(Cl)cc2)CC3=O)CC1 (stereo not drawn) | inactive: 77%
CCOc1ccc(NC(=O)Nc2cc3c(cc2N2CCCCC2)n(C)c(=O)n3C)cc1 | inactive: 128%
COc1ccc(-c2noc(-c3cc(-c4ccc(F)cc4)n[nH]3)n2)cc1 | inactive: 72%
O=C(NCc1ccc(F)cc1)c1nnc(Cc2cccc(F)c2)o1 | inactive: 90%
CCOC(=O)CCCCN(Cc1ccccc1F)S(=O)(=O)c1ccc(F)c(C(=O)Nc2cc(Cl)cc(Cl)c2)c1 | inactive: 79%
COc1cc(-c2noc(-c3ccc(NC4CCCC4)c([N+](=O)[O-])c3)n2)cc(OC)c1OC | inactive: 88%
CN(c1ccc(F)cc1)S(=O)(=O)N1CCCC(C(=O)NCCc2ccccc2)C1 (stereo not drawn) | inactive: 105%
COc1ccc(C2=NC(C)(C)N(CC(=O)Nc3cc(OC)cc(OC)c3)C2=O)cc1 | inactive: 116%
CCN1CCN(c2cc(C)c3cc(NC(=O)/C=C/c4cccc(OC)c4OC)ccc3n2)CC1 | inactive: 83%

Structure (SMILES) | survival
Cc1ccc(-c2cc3nccc(-c4cc([N+](=O)[O-])ccc4O)n3n2)cc1 | inactive: 58%
CCCOc1ccc(-c2nc3ccc(Br)cc3c(=O)o2)cc1 | inactive: 76%
CCCCNC(=O)CSc1nc2n[nH]c(C)c2c(=N)n1-c1cccc(C)c1 | inactive: 69%
CCOc1ccc(S(=O)(=O)NCc2nc3cccnc3n2Cc2ccccc2OC)cc1 | inactive: 85%
CCOC(=O)C1CCN(C(=O)c2ccc3c(c2)sc2nc(-c4ccc(OC)cc4)cn23)CC1 | inactive: 85%
Cc1c(C(=O)OC2CCCCCC2)[nH]c2c1C(=O)CC(c1ccccc1)C2 (stereo not drawn) | inactive: 92%
Cc1nc2ccc(S(=O)(=O)NC(CC(C)C)C(=O)NCc3ccc(Cl)cc3)cc2s1 (stereo not drawn) | inactive: 68%
O=C(Cn1c(=O)n(Cc2ccccc2)c(=O)c2sc3ccccc3c21)Nc1ccc(F)cc1 | inactive: 68%
CCOC(=O)C1CCCN(c2cc(C)nc3cc(-c4ccc(Cl)cc4)nn23)C1 (stereo not drawn) | inactive: 112%
CC1=C(C(=O)N2CCN(c3ccc(Cl)cc3)CC2)C2(CCC(C)CC2)OC1=O (stereo not drawn) | inactive: 124%
CCN(CC)C(=O)Cn1c(=O)sc2ccccc21 | inactive: 105%
CCCCN(CC)CCCNC(=O)c1cc2c(=O)oc3ccc(C)cc3c2s1 | inactive: 97%
Cc1ccc(C)c(Cn2c(=O)n(CCCC(=O)NCCc3ccc(Cl)cc3)c(=O)c3ccccc32)c1 | inactive: 94%
COc1ccc(-c2nc3sc(CCNC(=O)C(=O)Nc4ccc(C)c(C)c4)c(C)n3n2)cc1 | inactive: 117%
O=C(COc1ccc(Cl)cc1)NCC(c1cccs1)S(=O)(=O)c1ccc(F)cc1 (stereo not drawn) | inactive: 85%
CCOc1ccc(-c2nonc2NC(=O)c2ccco2)cc1OCC | inactive: 111%
COC(=O)c1ccccc1NC(=O)COC(=O)c1ccco1 | inactive: 108%
CCOC(=O)c1ccc(NC(=O)CC2C(=O)N(c3cccc(C)c3)C(=O)N2CCOC)cc1 (stereo not drawn) | inactive: 82%
CC(C)c1ccc(NC(=O)c2cnc3sc(N4CCCC4)nn3c2=O)cc1 | inactive: 99%
CCOc1ccccc1CNC(=O)c1cc2c(=O)n(Cc3ccco3)ccc2nc1C | inactive: 88%
COc1ccc(OC)c(-c2csc(-c3c(N)c(C(=O)c4ccc(Cl)cc4)n4ccccc34)n2)c1 | inactive: 119%
CCOc1cc(CNC(=O)NC2COc3ccccc3C2)cc(OCC)c1OCC (stereo not drawn) | inactive: 148%

Structure (SMILES) | survival
Cn1c(=O)[nH]c(=O)c2[nH]c(N(CCO)CCO)nc21 | inactive: 113%
Cc1ccc(OCC(=O)Nc2nnc(SCc3cc(=O)n4cccc(C)c4n3)s2)cc1 | inactive: 64%
Cc1ccc(NC(=O)CSc2nc3c(sc4ccccc43)c(=O)n2CCCC(=O)NC2CCCC2)cc1C | inactive: 86%
CC(C)COc1ccc(C(=O)Nc2nnc(S(=O)(=O)N(C)Cc3ccco3)s2)cc1 | inactive: 88%
COc1cccc(CNC(=O)c2cc3c(=O)n(Cc4cccnc4)ccc3nc2C)c1 | inactive: 148%
COc1ccc(C(=O)Nc2nnc(S(=O)(=O)N(C)c3ccc(C)cc3)s2)cc1 | inactive: 78%
CCc1ccccc1Nc1ncnc2c1cnn2-c1ccc(C)cc1C | inactive: 83%
COc1ccc(C(=O)Nc2nnc(S(=O)(=O)N3CCN(c4ccc(F)cc4)CC3)s2)cc1 | inactive: 77%
CCc1cccc(NC(c2ccccc2)c2nnc(-c3ccccc3F)o2)c1 (stereo not drawn) | active: 1%
CCOC(=O)c1c(C)[nH]c(C)c1S(=O)(=O)N1CCCC(C(=O)NCc2ccccc2Cl)C1 (stereo not drawn) | inactive: 67%
CCCc1cc(=O)oc2c(C)c3c(cc12)CN(CCc1ccc(Cl)cc1)CO3 | inactive: 63%
Cc1ccc2oc(-c3cc(NC(=O)CC(C)C)ccc3Cl)nc2c1 | inactive: 87%
CCC(C)NC(=O)Cn1c(=O)n(-c2ccc(OC)c(OC)c2)c(=O)c2ccccc21 (stereo not drawn) | inactive: 87%
CC1Oc2ccccc2N(CC(=O)NCC2CCCO2)C1=O (stereo not drawn) | inactive: 102%
Cc1ccc2c(c1)Cc1c(nc(-c3ccc(F)cc3)nc1SCC(=O)N1CCCCC1)O2 | inactive: 75%
Cc1ccc(Nc2c(-c3cccnc3)nc3ccc(Cl)cn23)cc1 | inactive: 88%
CCOC(=O)C1CCN(C(=O)c2c(C)nn(-c3ccc(F)cc3)c2-n2cccc2)CC1 | inactive: 65%
COc1ccc2cc(CCNS(=O)(=O)c3ccc(C)cc3)c(=O)[nH]c2c1 | inactive: 72%
O=C(O)CCNC(=O)C(c1ccccc1)c1ccccc1 | inactive: 100%
O=C(Cn1nnc(-c2ccc(S(=O)(=O)N3CCCC3)cc2)n1)Nc1ccccc1-n1cccc1 | inactive: 108%
CCCc1nnc(NC(=O)Cc2coc3c(C)c(C)ccc23)s1 | inactive: 104%
O=S(=O)(c1ccc(-c2csc(=Nc3ccc(F)cc3)n2CCCCCCO)cc1)N1CCCC1 | inactive: 55%

Structure (SMILES) | survival
Cc1cccc(OCC(=O)Nc2ccc3c(c2)nc(CN2CCCCC2)n3C)c1 | inactive: 87%
O=C(COCc1cc(-c2cccs2)on1)NCc1ccc(F)cc1 | inactive: 73%
O=C(Nc1ccc(Cl)cc1)c1ccc(-n2cnnc2)cc1 | inactive: 72%
Cc1ccc(-n2ncc3c(N4CCN(Cc5ccccc5)CC4)ncnc32)cc1Cl | inactive: 72%
CCc1cc(=O)[nH]c(SCc2nc(-c3cccc(Cl)c3)no2)n1 | inactive: 22%
CC(C)c1ccc(NC(=O)C2CCCN2S(=O)(=O)c2ccc3nc(-c4ccccc4)[nH]c3c2)cc1 (stereo not drawn) | inactive: 64%
O=C(Cn1nc(C(F)(F)F)c2c1CCC2)NC1CCCC1 | inactive: 108%
Cc1ccc(Cl)cc1N1CCN(S(=O)(=O)c2ccc3c(c2)C(C(C)C)C(=O)N3)CC1 (stereo not drawn) | inactive: 97%
CCOCCCn1c(SCC(=O)Nc2ccc(CC)cc2)nc2ccccc2c1=O | inactive: 85%
Cc1cccc(NC(=O)CC(C)(C)C)c1 | inactive: 103%
COc1ccc(C(=O)N(Cc2sccc2C)C2CCS(=O)(=O)C2)cc1 (stereo not drawn) | inactive: 86%
COc1cc(NC(=O)Cn2ccc3ccccc3c2=O)cc(OC)c1OC | inactive: 91%
Cc1ccc(-n2ncc(C(=O)NCCN3CCN(C)CC3)c2C2CCN(C(=O)OC(C)(C)C)CC2)cc1 | inactive: 74%
CCc1ccc(C2C(C(=O)Nc3ccccc3OC)=C(C)Nc3nc(SCc4ccccc4)nn32)cc1 (stereo not drawn) | inactive: 78%
CCOc1ccc(CNC(=O)CN2N=C(c3ccccc3)CCC2=O)cc1OC | inactive: 121%
Cc1ccc(CNC(=O)CSc2nc3ccsc3c(=O)n2-c2ccc(Br)cc2)cc1 | active: 14%
Cn1c(C(=O)NCCc2ccccc2)cc2sc(Cl)cc21 | inactive: 118%
Cc1nc(C)c(-c2ccc(SCC(=O)Nc3cccc(C)c3C)nn2)s1 | inactive: 78%
Cc1ccc(Cn2c(CNC(=O)c3ccc(Cl)c([N+](=O)[O-])c3)nc3cccnc32)cc1 | inactive: 79%
CCCc1ccc(NC(=O)C2CCCN(c3cnccn3)C2)cc1 (stereo not drawn) | inactive: 82%
CCOc1cc(CNC(=O)Cn2ncn3c(cc4cc(F)ccc43)c2=O)cc(OCC)c1OCC | inactive: 83%
CCc1ccc(NC(=O)C2CCN(S(=O)(=O)c3cccc(-c4noc(C)n4)c3)CC2)cc1 | inactive: 90%
